In all, about 420,000 compounds went through this assay and about 64,000 (15%) were called active. The shares of active, inactive and inconclusive entries below differ from those in the screen. Calls follow the shape of the dose curve; as a rule, active = well fitted inhibition curve with a large enough effect; inconclusive = small, poorly fitted or top-dose-only effect; inactive = flat fitted curve, though single readings scatter. No potency is given beside an inconclusive call; the fits are too rough.
Assay: qHTS for Inhibitors of human tyrosyl-DNA phosphodiesterase 1 (TDP1): qHTS in cells in absence of CPT; also: nearly all actives have a fitted effect of over 55% in size
Details: DT40 Tdp1-/- hTDP1 cells, no CPT, ATP luminescence, 48 h; activity change, negative = growth inhibition: at 46.2 µM (top of the series) unless noted
In short: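 Growth kinetics read by CellTiter-Glo luminescence after ≥48 hr at 37 °C. Cells: DT40 Tdp1-/- stably carrying human TDP1, 400 per well, compound exposure in the absence of CPT (DMSO vehicle).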
In the case of `CC1(C(=O)Nc2nc3ccc(S(C)(=O)=O)cc3s2)CC1(Cl)Cl` (stereo unspecified), the Potency is reported as inconclusive [inhibitor, partial curve]. For `CSc1ncccc1C(=O)N(C)CC(=O)Nc1ccc(Cl)cc1`, the Potency was inconclusive [inhibitor, single point]. In the case of `NS(=O)(=O)c1ccc(CCNC(=O)c2ccccc2OCc2ccc(F)cc2)cc1`, the Potency is reported as inconclusive [inhibitor, single point]. For `CCOC(=O)c1cc(C#N)c(SCc2cccc3ccccc23)nc1C`, the Potency was inconclusive [inhibitor, partial curve]. In the case of `COc1ccc(CNC(=O)CSCc2c(F)cccc2Cl)cc1`, the activity change, negative = growth inhibition is reported as inconclusive: -32.4% [inhibitor]. For `Cc1cccc(C(=O)NC2(C(F)(F)F)N=C(c3ccccc3)N(Cc3ccccc3)C2=O)c1` (stereo unspecified), the Potency was inconclusive [inhibitor, single point]. In the case of `Cc1c(Cl)cccc1NC(=O)CN1C(=O)c2ccccc2Sc2ncccc21`, the Potency is reported as inconclusive [inhibitor, single point]. With `COc1cc(/C(C#N)=C/c2cccc3ccccc23)c([N+](=O)[O-])cc1OC` the “activity change, negative = growth inhibition” value was inactive: -25.5%. In the case of `CCCOc1ccccc1Cn1c(=O)oc2ccccc21`, the “activity change, negative = growth inhibition” value is reported as inactive: -9.98%. In the case of `COc1ccc(NC(=O)c2ccco2)c([N+](=O)[O-])c1`, the Potency is reported as inconclusive [inhibitor, single point]. For `C/C(=N\Nc1nncc2ccccc12)c1cccc(OC(F)F)c1`, the Potency was inconclusive [inhibitor, single point]. For `CNCc1ccccc1Sc1ccc(OC)c(OC)c1`, the Potency was inconclusive [inhibitor, partial curve]. In the case of `O=C(NC(=S)Nc1ccc(CN2CCOCC2)cc1)c1cccc([N+](=O)[O-])c1`, the “activity change, negative = growth inhibition” value is reported as inactive: -23.1%. In the case of `CCN(c1ccccc1)S(=O)(=O)c1cccc(C(=O)NCc2ccncc2)c1`, the activity change, negative = growth inhibition is reported as inconclusive: -33.7% [inhibitor]. With `Cc1ccc(OCc2nnc(NC(=O)c3ccco3)s2)cc1` the “activity change, negative = growth inhibition” value was inactive: -12.9%. In the case of `O=C(CSc1nc2ccccc2n1CC(=O)Nc1ccc(F)cc1F)Nc1ccc(F)cc1`, the “activity change, negative = growth inhibition” value is reported as inactive: -4.72%. With `Cc1ccc(Sc2c(O)c3ccccc3n(C)c2=O)cc1` the “activity change, negative = growth inhibition” value was inactive: 13.7%. In the case of `O=C(N/N=C/c1cccs1)c1cccnc1`, the Potency is reported as active: 23.1 µM. In the case of `CSc1ccccc1C(=O)NC1CCSc2ccccc21` (stereo unspecified), the Potency is reported as inconclusive [inhibitor, single point]. In the case of `O=C(Nc1ccccc1Cc1ccccc1)c1ccccc1F`, the Potency is reported as inconclusive [inhibitor, partial curve]. In the case of `O=C(CC1(c2cccc(F)c2)CC(=O)N(Cc2cccnc2)C1=O)N1CCCCCCC1` (stereo unspecified), the Potency is reported as inconclusive [inhibitor, single point]. With `CCC(=O)Nc1sc2c(c1C(N)=O)CCN(Cc1ccccc1)C2` the Potency was inconclusive [inhibitor, single point]. With `O=C(NCc1cccnc1)c1ccc(NC(=O)c2ccc([N+](=O)[O-])cc2)cc1` the Potency was active: 9.2 µM. In the case of `Cc1ccc(NC(=O)c2ccc3c(c2)CCN3S(C)(=O)=O)cc1C`, the Potency is reported as inconclusive [inhibitor, partial curve, poor fit]. For `Cc1ccc(-c2c(CN3CCN(c4cc(Cl)ccc4C)CC3)csc2C)cc1`, the Potency was inconclusive [inhibitor, single point]. For `O=C(CCc1ccc(S(=O)(=O)NCc2ccccc2)cc1)N1CCN(Cc2ccc3c(c2)OCO3)CC1`, the Potency was inconclusive [inhibitor, single point]. In the case of `CCn1c(C)cs/c1=N\C(=S)Nc1ccccc1C`, the Potency is reported as inconclusive [inhibitor, partial curve]. For `Cc1c(N=C/C=C/c2ccccc2)cnn1C`, the Potency was inconclusive [inhibitor, single point]. For `O=P(Cc1ccccc1)(Cc1ccccc1)c1ccccc1`, the Potency was inconclusive [inhibitor, single point]. With `CC(=O)N1CCc2c(sc3c2c(=O)n(-c2ccccc2Cl)c(=O)n3C)C1` the “activity change, negative = growth inhibition” value was inactive: 18.5%. For `Nc1cc2c(cc1Br)-c1ccccc1C2=NO`, the Potency was inconclusive [inhibitor, partial curve, poor fit]. With `CCn1c(=O)c2cc(C(=O)NCCc3cccc(C)c3)sc2c2ccccc21` the “activity change, negative = growth inhibition” value was inactive: -14.3%. For `COCCCN1CCc2nc(SCC(=O)Nc3ccc(C)c(Cl)c3)[nH]c(=O)c2C1`, the Potency was inconclusive [inhibitor, single point]. With `O=C(OCc1c(-c2ccccc2)ncc2ccccc12)c1cccs1` the Potency was inconclusive [inhibitor, single point]. With `COc1cc(O)cc(O)c1C(=O)/C=C/c1ccccc1` the Potency was active: 14.6 µM. In the case of `Cc1ccc2nc(Cl)c(C3CC(c4cccs4)=NN3C(=O)CCCC(=O)O)cc2c1` (stereo unspecified), the Potency is reported as active: 8.2 µM. With `Cc1c(Cl)c([N+](=O)[O-])nn1CCCC(=O)Nc1cccc(Cl)c1` the Potency was inconclusive [inhibitor, single point]. With `CCOc1ncccc1C(=O)Nc1cccc(-c2nc3cccnc3s2)c1` the Potency was active: 13 µM. In the case of `O=C(c1cc(-c2ccc(Br)cc2)n[nH]1)N1CCN(C(=O)c2ccccc2Br)CC1`, the Potency is reported as inconclusive [inhibitor, single point]. With `CCOC(=O)CC(NC(=O)c1cc2cccc(OC)c2oc1=O)c1ccc(OC)cc1` (stereo unspecified) the Potency was inconclusive [inhibitor, single point]. For `CN(C)CC(C)(C)CNC(=O)c1cnn(-c2ncc3c(n2)-c2ccccc2CC3)c1-c1ccco1`, the Potency was inconclusive [inhibitor, single point]. With `COc1ccc(-n2c(SCc3nc(-c4ccc(C)cc4)no3)nnc2-c2ccncc2)cc1` the “activity change, negative = growth inhibition” value was inactive: -40.5%. In the case of `COCCn1c(-c2ccccc2)nc2oc3cc(OC)ccc3c(=O)c2c1=O`, the “activity change, negative = growth inhibition” value is reported as inactive: -13.3%. For `COc1cc(C(=O)NNC(=O)C2CC2)cc(OC)c1OC`, the “activity change, negative = growth inhibition” value was inactive: -17.6%. With `CCC(C)NC(=O)Cn1ncc2c(C)n(Cc3ccc(F)cc3)c(C)c2c1=O` (stereo unspecified) the Potency was inconclusive [inhibitor, single point]. With `O=C(COC(=O)c1ccc(O)cc1O)Nc1nnc(-c2ccccc2)o1` the “activity change, negative = growth inhibition” value was inactive: 5.06%.

Source: PubChem BioAssay AID686978 (National Center for Advancing Translational Sciences (NCATS), 2013)
% is scaled to controls: 0 for no effect and ±100 for the full control effect; potency is read from the fitted curve at half-maximal effect; tags tell the direction and shape of the fitted curve.
